Measurements reported in patent US20260008835A1 (SHANGHAI REGENELEAD THERAPIES, published 2026).

T1: Human VEGF-A protein (human, UniProt P15692-4 27-191, limits assumed)
T1 sequence (looked up): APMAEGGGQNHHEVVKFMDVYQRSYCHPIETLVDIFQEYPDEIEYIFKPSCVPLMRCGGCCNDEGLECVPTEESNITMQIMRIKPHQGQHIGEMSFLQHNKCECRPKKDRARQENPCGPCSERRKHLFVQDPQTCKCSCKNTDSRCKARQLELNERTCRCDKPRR

T2: Human VEGF-B protein (human, UniProt P49765-2 22-188, limits assumed)
T2 sequence (looked up): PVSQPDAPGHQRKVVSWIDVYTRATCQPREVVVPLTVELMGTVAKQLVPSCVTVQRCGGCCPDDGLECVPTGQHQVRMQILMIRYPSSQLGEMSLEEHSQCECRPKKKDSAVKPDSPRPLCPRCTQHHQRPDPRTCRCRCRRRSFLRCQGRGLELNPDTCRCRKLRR

T3: Human VEGF-C protein (human, UniProt P49767 112-227, limits assumed)
T3 construct: Treated as one molecule; also called VEFG-C
T3 sequence (looked up): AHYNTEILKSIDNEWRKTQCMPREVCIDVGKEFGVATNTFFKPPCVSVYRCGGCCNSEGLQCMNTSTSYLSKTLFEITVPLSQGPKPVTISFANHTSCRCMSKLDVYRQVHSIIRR

B1: PR1171 (R1D2-R2D3-linker-R2D2 (C162V)-R2D3 (N274F/S283T)-Fc) (Fc fusion)
chain: SDTGRPFVEMYSEIPEIIHMTEGRELVIPCRVTSPNITVTLKKFPLDTLIPDGKRIIWDSRKGFIISNATYKEIGLLTCEATVNGHLYKTNYLTHRQTNTIIDVVLSPSHGIELSVGEKLVLNCTARTELNVGIDFNWEYPSSKHQHKKLVNRDLKTQSGSEMKKFLSTLTIDGVTRSDQGLYTCAASSGLMTKKNSTFVRVHEKGGGGSSPFIASVSDQHGVVYITENKNKTVVIPCLGSISNLNVSLVARYPEKRFVPDGNRISWDSKKGFTIPSYMISYAGMVFCEAKINDESYQSIMYIVVVVGYRIYDVVLSPSHGIELSVGEKLVLNCTARTELNVGIDFNWEYPSSKHQHKKLVFRDLKTQSGTEMKKFLSTLTIDGVTRSDQGLYTCAASSGLMTKKNSTFVRVHEK[human IgG1 Fc with changes not printed]
B2: PR1174 (R1D2-R2D3-linker-R2D2 (C162V/Y221S/R222K)-R2D3 (N274F/S283T)-Fc) (Fc fusion)
chain: SDTGRPFVEMYSEIPEIIHMTEGRELVIPCRVTSPNITVTLKKFPLDTLIPDGKRIIWDSRKGFIISNATYKEIGLLTCEATVNGHLYKTNYLTHRQTNTIIDVVLSPSHGIELSVGEKLVLNCTARTELNVGIDFNWEYPSSKHQHKKLVNRDLKTQSGSEMKKFLSTLTIDGVTRSDQGLYTCAASSGLMTKKNSTFVRVHEKGGGGSSPFIASVSDQHGVVYITENKNKTVVIPCLGSISNLNVSLVARYPEKRFVPDGNRISWDSKKGFTIPSYMISYAGMVFCEAKINDESYQSIMYIVVVVGSKIYDVVLSPSHGIELSVGEKLVLNCTARTELNVGIDFNWEYPSSKHQHKKLVFRDLKTQSGTEMKKFLSTLTIDGVTRSDQGLYTCAASSGLMTKKNSTFVRVHEK[human IgG1 Fc with changes not printed]
B3: PR1167 (R1D2-R2D3-R2D2 (C162V)-R2D3 (N274F/S283T)-Fc) (Fc fusion)
chain: SDTGRPFVEMYSEIPEIIHMTEGRELVIPCRVTSPNITVTLKKFPLDTLIPDGKRIIWDSRKGFIISNATYKEIGLLTCEATVNGHLYKTNYLTHRQTNTIIDVVLSPSHGIELSVGEKLVLNCTARTELNVGIDFNWEYPSSKHQHKKLVNRDLKTQSGSEMKKFLSTLTIDGVTRSDQGLYTCAASSGLMTKKNSTFVRVHEKSPFIASVSDQHGVVYITENKNKTVVIPCLGSISNLNVSLVARYPEKRFVPDGNRISWDSKKGFTIPSYMISYAGMVFCEAKINDESYQSIMYIVVVVGYRIYDVVLSPSHGIELSVGEKLVLNCTARTELNVGIDFNWEYPSSKHQHKKLVFRDLKTQSGTEMKKFLSTLTIDGVTRSDQGLYTCAASSGLMTKKNSTFVRVHEK[human IgG1 Fc with changes not printed]
B4: PR1168 (R1D2-R2D3-R2D2(C162V/Y221S/R222K)-R2D3 (N274F)-Fc) (Fc fusion)
chain: SDTGRPFVEMYSEIPEIIHMTEGRELVIPCRVTSPNITVTLKKFPLDTLIPDGKRIIWDSRKGFIISNATYKEIGLLTCEATVNGHLYKTNYLTHRQTNTIIDVVLSPSHGIELSVGEKLVLNCTARTELNVGIDFNWEYPSSKHQHKKLVNRDLKTQSGSEMKKFLSTLTIDGVTRSDQGLYTCAASSGLMTKKNSTFVRVHEKSPFIASVSDQHGVVYITENKNKTVVIPCLGSISNLNVSLVARYPEKRFVPDGNRISWDSKKGFTIPSYMISYAGMVFCEAKINDESYQSIMYIVVVVGSKIYDVVLSPSHGIELSVGEKLVLNCTARTELNVGIDFNWEYPSSKHQHKKLVFRDLKTQSGSEMKKFLSTLTIDGVTRSDQGLYTCAASSGLMTKKNSTFVRVHEK[human IgG1 Fc with changes not printed]
B5: PR1170 (R1D2-R2D3-R2D2(C162V/Y221S/R222K)-R2D3 (N274F/S283T)-Fc) (Fc fusion)
chain: SDTGRPFVEMYSEIPEIIHMTEGRELVIPCRVTSPNITVTLKKFPLDTLIPDGKRIIWDSRKGFIISNATYKEIGLLTCEATVNGHLYKTNYLTHRQTNTIIDVVLSPSHGIELSVGEKLVLNCTARTELNVGIDFNWEYPSSKHQHKKLVNRDLKTQSGSEMKKFLSTLTIDGVTRSDQGLYTCAASSGLMTKKNSTFVRVHEKSPFIASVSDQHGVVYITENKNKTVVIPCLGSISNLNVSLVARYPEKRFVPDGNRISWDSKKGFTIPSYMISYAGMVFCEAKINDESYQSIMYIVVVVGSKIYDVVLSPSHGIELSVGEKLVLNCTARTELNVGIDFNWEYPSSKHQHKKLVFRDLKTQSGTEMKKFLSTLTIDGVTRSDQGLYTCAASSGLMTKKNSTFVRVHEK[human IgG1 Fc with changes not printed]
B6: PR1169 (R1D2-R2D3-R2D2(C162V/Y221S/R222K)-R2D3 (S283T)-Fc) (Fc fusion)
chain: SDTGRPFVEMYSEIPEIIHMTEGRELVIPCRVTSPNITVTLKKFPLDTLIPDGKRIIWDSRKGFIISNATYKEIGLLTCEATVNGHLYKTNYLTHRQTNTIIDVVLSPSHGIELSVGEKLVLNCTARTELNVGIDFNWEYPSSKHQHKKLVNRDLKTQSGSEMKKFLSTLTIDGVTRSDQGLYTCAASSGLMTKKNSTFVRVHEKSPFIASVSDQHGVVYITENKNKTVVIPCLGSISNLNVSLVARYPEKRFVPDGNRISWDSKKGFTIPSYMISYAGMVFCEAKINDESYQSIMYIVVVVGSKIYDVVLSPSHGIELSVGEKLVLNCTARTELNVGIDFNWEYPSSKHQHKKLVNRDLKTQSGTEMKKFLSTLTIDGVTRSDQGLYTCAASSGLMTKKNSTFVRVHEK[human IgG1 Fc with changes not printed]
B7: OPT-302 (HRAMD-C3) (Fc fusion)
chain: YSMTPPTLNITEESHVIDTGDSLSISCRGQHPLEWAWPGAQEAPATGDKDSEDTGVVRDCEGTDARPYCKVLLLHEVHAQDTGSYVCYYKYIKARIEGTTAASSYVFVRDFEQPFINKPDTLLVNRKDAMWVPCLVSIPGLNVTLRSQSSVLWPDGQEVVWDDRRGMLVSTPLLHDALYLQCETTWGDQDFLSNPFLVHITGNELYDIQLLPRKSLELLVGEKLVLNCTVWAEFNSGVTFDWDYPGKQAERGKWVPERRSQQTHTELSSILTIHNVSQHDLGSYVCKANNGIQRFRESTEVIVHE[human IgG1 Fc not printed]
notes: Positive control for VEGF-C

The binders below were run against T1, Human VEGF-A protein (assay: cell-based or functional assay).

VEGF-A IC50; VEGF-A-induced NFAT-RE-luc2P/KDR HEK293 reporter gene expression [nM] | Binder
1.09 | B1
1.02 | B2
1.1 | B3
1.15 | B4
0.89 | B5
0.9 | B6

Biological target: T1, Human VEGF-A protein
Assay: cell-based or functional assay
Remark: another data set of the same source

VEGF-A IC50; VEGF-A-induced NFAT-RE-luc2P/KDR HEK293 reporter gene expression [nM] | Binder
0.12 | B2

These binders were tested against T1, Human VEGF-A protein (assay: SPR (Biacore T200), binder captured on Protein A chip, VEGF as analyte, multi-cycle).

Kd [nM] | koff [s⁻¹] | kon [M⁻¹ s⁻¹] | Binder
0.0429 | 0.000115 | 2.68e+06 | B2

What follows are binders tested against T2, Human VEGF-B protein in the same assay as above.

Kd [nM] | koff [s⁻¹] | kon [M⁻¹ s⁻¹] | Binder
0.321 | 0.000161 | 501000 | B2

What follows are binders tested against T3, Human VEGF-C protein in the same assay as above.

Kd [nM] | koff [s⁻¹] | kon [M⁻¹ s⁻¹] | Binder
0.0234 | 5.17e-05 | 2.21e+06 | B2
0.0151 | 4.85e-05 | 3.21e+06 | B7
